Results: US20230002489A1 (SHANGHAI EPIMAB BIOTHERAPEUTICS, published 2023)

Biological target: T1, human CD3 on the surface of Jurkat cells (human, UniProt P07766; P09693; P04234)
T1 construct: whole, on cells; Endogenous CD3 complex of the Jurkat T cell line; also called cell surface CD3 target on Jurkat cells; CD3-expressing Jurkat cells
Experiment: flow cytometry on Jurkat cells, MFI against antibody conc. (nM)
Procedure: Different humanized VH and VK combinations led to humanized anti-CD3 variants with different CD3 binding affinities. The binding activity of the humanized variants of mAbCD3-001 were tested via flow cytometry with the human CD3-expressing Jurkat T cell line. 5×10⁵ Jurkat cells in FACS buffer were seeded into each well of a 96-well plate. Cells were centrifuged at 400 g for 5 minutes and supernatants were discarded. For each well, 100 μl of serially diluted antibodies were then added and mixed with the cells. After 40 minutes incubation at 4° C., plates were washed several times to remove excess antibodies. […] After another round of centrifugation and a washing step, cells were resuspended in FACS buffer for reading on a CytoFLEX Flow Cytometer (Beckman Coulter). Median Fluorescence Intensity (MFI) readouts were plotted against antibody concentration and analyzed with GraphPad Prism 5.0 software.

T1 sequence (P07766 23-207, chain 1 of 3): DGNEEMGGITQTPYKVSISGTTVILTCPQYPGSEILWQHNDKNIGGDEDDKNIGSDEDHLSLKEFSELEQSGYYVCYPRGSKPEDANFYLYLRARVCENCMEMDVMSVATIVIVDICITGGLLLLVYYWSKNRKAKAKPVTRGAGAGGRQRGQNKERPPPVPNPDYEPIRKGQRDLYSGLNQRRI
T1 sequence (P09693 23-182, chain 2 of 3, further chain): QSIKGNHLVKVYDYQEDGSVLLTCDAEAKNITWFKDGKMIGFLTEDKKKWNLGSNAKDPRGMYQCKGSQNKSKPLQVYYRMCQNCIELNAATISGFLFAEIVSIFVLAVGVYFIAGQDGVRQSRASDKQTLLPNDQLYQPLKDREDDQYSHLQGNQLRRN
T1 sequence (P04234 22-171, chain 3 of 3, further chain): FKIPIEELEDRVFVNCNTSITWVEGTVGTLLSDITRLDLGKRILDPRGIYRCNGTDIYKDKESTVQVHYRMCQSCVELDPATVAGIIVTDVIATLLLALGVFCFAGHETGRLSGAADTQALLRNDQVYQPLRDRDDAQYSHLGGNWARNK

| Binder | binding result |
| --- | --- |
| HuEM0006-01-7 (antibody, human IgG1, kappa, Humanized variant of mAbCD3-001) heavy: EVQLVQSGAEVKKPGASVKVSCKASGFSFTNYYVHWMRQAPGQGLEWIGWISPGSDNTKYNEKFKGRVTLTADTSISTAYMELSRLRSDDTAVYYCARDDYGNYYFDYWGQGTTVTVSSASTKGPSVFPLAPSSKSTSGGTAALGCLVKDYFPEPVTVSWNSGALTSGVHTFPAVLQSSGLYSLSSVVTVPSSSLGTQTYICNVNHKPSNTKVDKKV[letters of human IgG1 Fc with changes omitted] light: DIVMTQSPDSLAVSLGERATINCKSSQSLLNSRTRKNYLAWYQQKPGQPPKLLIYWASTRESGVPDRFSGSGSGTDFTLTISSLQAEDVAVYYCKQSYILRTFGGGTKVEIKRTVAAPSVFIFPPSDEQLKSGTASVVCLLNNFYPREAKVQWKVDNALQSGNSQESVTEQDSKDSTYSLSSTLTLSKADYEKHKVYACEVTHQGLSSPVTKSFNRGEC | binds |
| HuEM0006-01-4 (antibody, human IgG1, kappa, Humanized variant of mAbCD3-001) heavy: EVQLVQSGAEVKKPGASVKVSCKASGYTFTNYYVHWMRQAPGQGLEWIGWISPGSDNTKYNEKFKGKATLTADTSISTAYMELSRLRSDDTAVYYCARDDYGNYYFDYWGQGTTVTVSSASTKGPSVFPLAPSSKSTSGGTAALGCLVKDYFPEPVTVSWNSGALTSGVHTFPAVLQSSGLYSLSSVVTVPSSSLGTQTYICNVNHKPSNTKVDKKV[letters of human IgG1 Fc with changes omitted] light: DIVMTQSPDSLAVSLGERATINCKSSQSLLNSRTRKNYLAWYQQKPGQPPKLLIYWASTRESGVPDRFSGSGSGTDFTLTISSLQAEDVAVYYCKQSYILRTFGGGTKVEIKRTVAAPSVFIFPPSDEQLKSGTASVVCLLNNFYPREAKVQWKVDNALQSGNSQESVTEQDSKDSTYSLSSTLTLSKADYEKHKVYACEVTHQGLSSPVTKSFNRGEC | binds |
| HuEM0006-01-11 (antibody, human IgG1, kappa, Humanized variant of mAbCD3-001) heavy: EVQLVQSGAEVKKPGASVKVSCKASGYTFTNYYVHWVRQAPGQGLEWIGWISPGSDNTKYNEKFKGRVTLTADTSISTAYMELSRLRSDDTAVYYCARDDYGNYYFDYWGQGTTVTVSSASTKGPSVFPLAPSSKSTSGGTAALGCLVKDYFPEPVTVSWNSGALTSGVHTFPAVLQSSGLYSLSSVVTVPSSSLGTQTYICNVNHKPSNTKVDKKV[letters of human IgG1 Fc with changes omitted] light: DIVMSQSPDSLAVSLGERATITCKSSQSLLNSRTRKNYLAWYQQKPGQPPKLLIYWASTRESGVPDRFSGSGSGTDFTLTISSLQAEDVAVYYCKQSYILRTFGGGTKVEIKRTVAAPSVFIFPPSDEQLKSGTASVVCLLNNFYPREAKVQWKVDNALQSGNSQESVTEQDSKDSTYSLSSTLTLSKADYEKHKVYACEVTHQGLSSPVTKSFNRGEC | binds |
| HuEM0006-01-2 (antibody, human IgG1, kappa, Humanized variant of mAbCD3-001) heavy: EVQLVQSGAEVKKPGASVKVSCKASGYTFTNYYVHWVRQAPGQGLEWIGWISPGSDNTKYNEKFKGRVTLTADTSISTAYMELSRLRSDDTAVYYCARDDYGNYYFDYWGQGTTVTVSSASTKGPSVFPLAPSSKSTSGGTAALGCLVKDYFPEPVTVSWNSGALTSGVHTFPAVLQSSGLYSLSSVVTVPSSSLGTQTYICNVNHKPSNTKVDKKV[letters of human IgG1 Fc with changes omitted] light: DIVMTQSPDSLAVSLGERATINCKSSQSLLNSRTRKNYLAWYQQKPGQPPKLLIYWASTRESGVPDRFSGSGSGTDFTLTISSLQAEDVAVYYCKQSYILRTFGGGTKVEIKRTVAAPSVFIFPPSDEQLKSGTASVVCLLNNFYPREAKVQWKVDNALQSGNSQESVTEQDSKDSTYSLSSTLTLSKADYEKHKVYACEVTHQGLSSPVTKSFNRGEC | binds |
| HuEM0006-01-9 (antibody, human IgG1, kappa, Humanized variant of mAbCD3-001) heavy: EVQLVQSGAEVKKPGASVKVSCKASGFSFTNYYVHWMKQAPGQGLEWIGWISPGSDNTKYNEKFKGKATLTADTSITTAYMELSRLRSDDTAVYYCARDDYGNYYFDYWGQGTTVTVSSASTKGPSVFPLAPSSKSTSGGTAALGCLVKDYFPEPVTVSWNSGALTSGVHTFPAVLQSSGLYSLSSVVTVPSSSLGTQTYICNVNHKPSNTKVDKKV[letters of human IgG1 Fc with changes omitted] light: DIVMTQSPDSLAVSLGERATINCKSSQSLLNSRTRKNYLAWYQQKPGQPPKLLIYWASTRESGVPDRFSGSGSGTDFTLTISSLQAEDVAVYYCKQSYILRTFGGGTKVEIKRTVAAPSVFIFPPSDEQLKSGTASVVCLLNNFYPREAKVQWKVDNALQSGNSQESVTEQDSKDSTYSLSSTLTLSKADYEKHKVYACEVTHQGLSSPVTKSFNRGEC | binds |

Second part, the binder after the results:

| binding result | Binder |
| --- | --- |
| binds | HuEM0006-01-10 (antibody, human IgG1, kappa, Humanized variant of mAbCD3-001) heavy: EVQLVQSGAEVKKPGASVKVSCKASGYTFTNYYVHWVRQAPGQGLEWMGWISPGSDNTKYNEKFKGRVTLTADTSISTAYMELSRLRSDDTAVYYCARDDYGNYYFDYWGQGTTVTVSSASTKGPSVFPLAPSSKSTSGGTAALGCLVKDYFPEPVTVSWNSGALTSGVHTFPAVLQSSGLYSLSSVVTVPSSSLGTQTYICNVNHKPSNTKVDKKV[letters of human IgG1 Fc with changes omitted] light: DIVMSQSPDSLAVSLGERATITCKSSQSLLNSRTRKNYLAWYQQKPGQPPKLLIYWASTRESGVPDRFSGSGSGTDFTLTISSLQAEDVAVYYCKQSYILRTFGGGTKVEIKRTVAAPSVFIFPPSDEQLKSGTASVVCLLNNFYPREAKVQWKVDNALQSGNSQESVTEQDSKDSTYSLSSTLTLSKADYEKHKVYACEVTHQGLSSPVTKSFNRGEC |
| binds | HuEM0006-01-6 (antibody, human IgG1, kappa, Humanized variant of mAbCD3-001) heavy: EVQLVQSGAEVKKPGASVKVSCKASGFSFTNYYVHWMRQAPGQGLEWIGWISPGSDNTKYNEKFKGKATLTADTSISTAYMELSRLRSDDTAVYYCARDDYGNYYFDYWGQGTTVTVSSASTKGPSVFPLAPSSKSTSGGTAALGCLVKDYFPEPVTVSWNSGALTSGVHTFPAVLQSSGLYSLSSVVTVPSSSLGTQTYICNVNHKPSNTKVDKKV[letters of human IgG1 Fc with changes omitted] light: DIVMTQSPDSLAVSLGERATINCKSSQSLLNSRTRKNYLAWYQQKPGQPPKLLIYWASTRESGVPDRFSGSGSGTDFTLTISSLQAEDVAVYYCKQSYILRTFGGGTKVEIKRTVAAPSVFIFPPSDEQLKSGTASVVCLLNNFYPREAKVQWKVDNALQSGNSQESVTEQDSKDSTYSLSSTLTLSKADYEKHKVYACEVTHQGLSSPVTKSFNRGEC |
| binds | HuEM0006-01-5 (antibody, human IgG1, kappa, Humanized variant of mAbCD3-001) heavy: EVQLVQSGAEVKKPGASVKVSCKASGYTFTNYYVHWMRQAPGQGLEWIGWISPGSDNTKYNEKFKGRVTLTADTSISTAYMELSRLRSDDTAVYYCARDDYGNYYFDYWGQGTTVTVSSASTKGPSVFPLAPSSKSTSGGTAALGCLVKDYFPEPVTVSWNSGALTSGVHTFPAVLQSSGLYSLSSVVTVPSSSLGTQTYICNVNHKPSNTKVDKKV[letters of human IgG1 Fc with changes omitted] light: DIVMTQSPDSLAVSLGERATINCKSSQSLLNSRTRKNYLAWYQQKPGQPPKLLIYWASTRESGVPDRFSGSGSGTDFTLTISSLQAEDVAVYYCKQSYILRTFGGGTKVEIKRTVAAPSVFIFPPSDEQLKSGTASVVCLLNNFYPREAKVQWKVDNALQSGNSQESVTEQDSKDSTYSLSSTLTLSKADYEKHKVYACEVTHQGLSSPVTKSFNRGEC |
| binds | HuEM0006-01-8 (antibody, human IgG1, kappa, Humanized variant of mAbCD3-001; also called HuEM0006-01-08) heavy: EVQLVQSGAEVKKPGASVKVSCKASGFSFTNYYVHWMRQAPGQGLEWMGWISPGSDNTKYNEKFKGRVTMTRDTSISTAYMELSRLRSDDTAVYYCARDDYGNYYFDYWGQGTTVTVSSASTKGPSVFPLAPSSKSTSGGTAALGCLVKDYFPEPVTVSWNSGALTSGVHTFPAVLQSSGLYSLSSVVTVPSSSLGTQTYICNVNHKPSNTKVDKKV[letters of human IgG1 Fc with changes omitted] light: DIVMTQSPDSLAVSLGERATINCKSSQSLLNSRTRKNYLAWYQQKPGQPPKLLIYWASTRESGVPDRFSGSGSGTDFTLTISSLQAEDVAVYYCKQSYILRTFGGGTKVEIKRTVAAPSVFIFPPSDEQLKSGTASVVCLLNNFYPREAKVQWKVDNALQSGNSQESVTEQDSKDSTYSLSSTLTLSKADYEKHKVYACEVTHQGLSSPVTKSFNRGEC |
| binds | HuEM0006-01-3 (antibody, human IgG1, kappa, Humanized variant of mAbCD3-001) heavy: EVQLVQSGAEVKKPGASVKVSCKASGYTFTNYYVHWVRQAPGQGLEWIGWISPGSDNTKYNEKFKGKATLTADTSISTAYMELSRLRSDDTAVYYCARDDYGNYYFDYWGQGTTVTVSSASTKGPSVFPLAPSSKSTSGGTAALGCLVKDYFPEPVTVSWNSGALTSGVHTFPAVLQSSGLYSLSSVVTVPSSSLGTQTYICNVNHKPSNTKVDKKV[letters of human IgG1 Fc with changes omitted] light: DIVMTQSPDSLAVSLGERATINCKSSQSLLNSRTRKNYLAWYQQKPGQPPKLLIYWASTRESGVPDRFSGSGSGTDFTLTISSLQAEDVAVYYCKQSYILRTFGGGTKVEIKRTVAAPSVFIFPPSDEQLKSGTASVVCLLNNFYPREAKVQWKVDNALQSGNSQESVTEQDSKDSTYSLSSTLTLSKADYEKHKVYACEVTHQGLSSPVTKSFNRGEC |
| binds | HuEM0006-01-1 (antibody, human IgG1, kappa, Humanized variant of mAbCD3-001) heavy: EVQLVQSGAEVKKPGASVKVSCKASGYTFTNYYVHWVRQAPGQGLEWMGWISPGSDNTKYNEKFKGRVTLTADTSISTAYMELSRLRSDDTAVYYCARDDYGNYYFDYWGQGTTVTVSSASTKGPSVFPLAPSSKSTSGGTAALGCLVKDYFPEPVTVSWNSGALTSGVHTFPAVLQSSGLYSLSSVVTVPSSSLGTQTYICNVNHKPSNTKVDKKV[letters of human IgG1 Fc with changes omitted] light: DIVMTQSPDSLAVSLGERATINCKSSQSLLNSRTRKNYLAWYQQKPGQPPKLLIYWASTRESGVPDRFSGSGSGTDFTLTISSLQAEDVAVYYCKQSYILRTFGGGTKVEIKRTVAAPSVFIFPPSDEQLKSGTASVVCLLNNFYPREAKVQWKVDNALQSGNSQESVTEQDSKDSTYSLSSTLTLSKADYEKHKVYACEVTHQGLSSPVTKSFNRGEC |
